In patent US5391540A, “Substituted pyridine compounds” (Rohm and Haas Company, priority 1993, dated 1995):
The name of at least one read-out is uncertain. Some ranges recur; such a range may be that of the whole group of compounds.

Columns and labels:
Assay in all cases: Post-emergence herbicidal activity (Table C)
Format in all cases: in vivo
Downy Brome = details: Dobr, 11.2 kg/ha, 10-14 days
Source text: (§1) The post-emergent activity is best seen on younger plants treated at the 11/2 to 2 leaf stage. In the tests which follow, larger and more developed plants were used.
(§2) The post-emergent herbicidal activity index used in Table C is as follows:
(§3) Top soil was placed in pans having holes in the bottom and compacted to a depth of 0.95 to 1.27 cm. from the top of the pan. A predetermined number of seeds of each of several dicotyledonous and monocotyledonous annual plant species and/or vegetative propagules for the perennial plant species were placed on the soil and pressed into the soil surface. The seeds and/or vegetative propagules were covered with soil and leveled. The pans were then placed on a bench in the greenhouse and watered as needed for germination and growth. After the plants reached the desired age (two to three weeks), each pan (except the control pans) was moved to a spraying chamber and sprayed by means of an atomizer. The spray solution or suspension contained about 0.4% by volume of an emulsifying agent and a sufficient amount of the candidate chemical to give an application rate of the active ingredient of 11.2 kg/ha while applying a total amount of solution or suspension equivalent to 1870 L/ha. […] The plant identifying codes in Table C are the same as above defined.

Morningglory = details: Mogl, 11.2 kg/ha, 10-14 days
Source text: as §1, §2, §3

Cocklebur = details: Cobu, 11.2 kg/ha, 10-14 days
Source text: as §1, §2, §3

Rhizome Johnsongrass = details: Rhjg, 11.2 kg/ha, 10-14 days
Source text: as §1, §2, §3

Yellow Nutsedge = details: Yens, 11.2 kg/ha, 10-14 days
Source text: as §1, §2, §3

Pennsylvania Smartweed = details: Pesw, 11.2 kg/ha, 10-14 days
Source text: as §1, §2, §3

Quackgrass = details: Rhqg, 11.2 kg/ha, 10-14 days
Source text: as §1, §2, §3

Velvetleaf = details: Vele, 11.2 kg/ha, 10-14 days
Source text: as §1, §2, §3

Common Lambsquarters = details: Colq, 11.2 kg/ha, 10-14 days
Source text: (§4) In the tests which follow, larger and more developed plants were used.
as §2
as §3, with “atomizer.” for “atomizer. The spray solution or suspension contained about 0.4% by volume of an emulsifying agent and a sufficient amount of the candidate chemical to give an application rate of the active ingredient of 11.2 kg/ha while applying a total amount of solution or suspension equivalent to 1870 L/ha.”

Barnyardgrass = details: Bygr, 11.2 kg/ha, 10-14 days
Source text: as §4, §2
as §3, with “atomizer.” for “atomizer. The spray solution or suspension contained about 0.4% by volume of an emulsifying agent and a sufficient amount of the candidate chemical to give an application rate of the active ingredient of 11.2 kg/ha while applying a total amount of solution or suspension equivalent to 1870 L/ha.”

Canada thistle = details: Cath, 11.2 kg/ha, 10-14 days
Source text: as §1, §2, §3

Compound	post-emergent herbicidal activity index (Downy Brome)	post-emergent herbicidal activity index (Morningglory)	post-emergent herbicidal activity index (Cocklebur)	post-emergent herbicidal activity index (Rhizome Johnsongrass)	post-emergent herbicidal activity index (Yellow Nutsedge)	post-emergent herbicidal activity index (Pennsylvania Smartweed)	post-emergent herbicidal activity index (Quackgrass)	post-emergent herbicidal activity index (Velvetleaf)	post-emergent herbicidal activity index (Common Lambsquarters)	post-emergent herbicidal activity index (Barnyardgrass)	post-emergent herbicidal activity index (Canada thistle)
COC=Nc1c(C(F)(F)F)nc(OC)c(C(=O)OC)c1CC(C)C [Compound 76, 3-pyridinecarboxylic acid, 2-methoxy-5-[(methoxymethylene)amino]-4-(2-methylpropyl)-6-(trifluoromethyl)-, methyl ester]	0 (0-24% inhibition)	0 (0-24% inhibition)	1 (25-49% inhibition)	0 (0-24% inhibition)	0 (0-24% inhibition)	0 (0-24% inhibition)	0 (0-24% inhibition)	0 (0-24% inhibition)	1 (25-49% inhibition)	2 (50-74% inhibition)	
COC(=O)c1c(OCC#N)nc(C(F)(F)F)c(C(=O)OC)c1CC(C)C [Compound 80, 3,5-pyridinedicarboxylic acid, 2-(cyanomethoxy)-4-(2-methylpropyl)-6-(trifluoromethyl)-, dimethyl ester]	0 (0-24% inhibition)	2 (50-74% inhibition)	0 (0-24% inhibition)	0 (0-24% inhibition)	0 (0-24% inhibition)		0 (0-24% inhibition)	1 (25-49% inhibition)	0 (0-24% inhibition)	1 (25-49% inhibition)	0 (0-24% inhibition)
COC(=O)c1c(OC)nc(C(F)(F)F)c(-n2cccc2)c1CC(C)C [Compound 15, 3-pyridinecarboxylic acid, 2-methoxy-4-(2-methylpropyl)-5-(1H-pyrro1-1-yl)-6-(trifluoromethyl)-, methyl ester]	0 (0-24% inhibition)	0 (0-24% inhibition)	0 (0-24% inhibition)	0 (0-24% inhibition)	0 (0-24% inhibition)	0 (0-24% inhibition)	0 (0-24% inhibition)	1 (25-49% inhibition)	1 (25-49% inhibition)	0 (0-24% inhibition)	
CCOC(=O)c1c(OC)nc(C(F)F)c(C(=O)OC)c1CC(C)C [Compound 26, 3,5-pyridinedicarboxylic acid, 2-(difluoromethyl)-6-methoxy-4-(2-methylpropyl)-, 5-ethyl 3-methyl ester]	0 (0-24% inhibition)	1 (25-49% inhibition)	0 (0-24% inhibition)	0 (0-24% inhibition)	0 (0-24% inhibition)	0 (0-24% inhibition)	0 (0-24% inhibition)	0 (0-24% inhibition)	0 (0-24% inhibition)	0 (0-24% inhibition)	
COC(=O)c1c(C(F)(F)F)nc(OC)c(-n2cccc2)c1CC(C)C [Compound 14, 3-pyridinecarboxylic acid, 6-methoxy-4-(2-methylpropyl)-5-(1H-pyrro1-1-yl)-2-(trifluoromethyl)-, methyl ester]	0 (0-24% inhibition)	0 (0-24% inhibition)	0 (0-24% inhibition)	0 (0-24% inhibition)	0 (0-24% inhibition)	0 (0-24% inhibition)	0 (0-24% inhibition)	0 (0-24% inhibition)	1 (25-49% inhibition)	2 (50-74% inhibition)	
COC(=O)c1c(C(F)(F)F)[nH]c(=O)c(C#N)c1CC(C)C [Compound 22, 3-pyridinecarboxylic acid, 5-cyano-1,6-dihydro-4-(2-methylpropyl)-6-oxo-2-(trifluoromethyl)-, methyl ester]		0 (0-24% inhibition)	0 (0-24% inhibition)	0 (0-24% inhibition)	0 (0-24% inhibition)		0 (0-24% inhibition)	0 (0-24% inhibition)	1 (25-49% inhibition)	0 (0-24% inhibition)	0 (0-24% inhibition)
CNC(=O)c1c(OC)nc(C(F)(F)F)c(C(=O)OC)c1CC(C)C [Compound 21, 3-pyridinecarboxylic acid, 6-methoxy-5-[(methylamino)carbonyl]-4-(2-methylpropyl)-2-(trifluoromethyl)-, methyl ester]		0 (0-24% inhibition)	0 (0-24% inhibition)	0 (0-24% inhibition)	0 (0-24% inhibition)	0 (0-24% inhibition)	0 (0-24% inhibition)	0 (0-24% inhibition)	0 (0-24% inhibition)	0 (0-24% inhibition)	
COC(=O)c1c(OC)nc(C(F)(F)F)c(C(=O)OCCF)c1CC(C)C [Compound 81, 3,5-pyridinedicarboxylic acid, 2-methoxy-4-(2-methylpropyl)-6-(trifluoromethyl)-, 5-(2-fluoroethyl) 3-methyl ester]	0 (0-24% inhibition)	1 (25-49% inhibition)	2 (50-74% inhibition)	0 (0-24% inhibition)	0 (0-24% inhibition)		0 (0-24% inhibition)	2 (50-74% inhibition)	2 (50-74% inhibition)	1 (25-49% inhibition)	0 (0-24% inhibition)
COC(=O)c1c(C(F)(F)F)nc(OC)c(N)c1CC(C)C [Compound 32, 3-pyridinecarboxylic acid, 5-amino-6-methoxy-4-(2-methylpropyl)-2-(trifluoromethyl)-, methyl ester]	0 (0-24% inhibition)	0 (0-24% inhibition)	0 (0-24% inhibition)		0 (0-24% inhibition)	0 (0-24% inhibition)	0 (0-24% inhibition)	0 (0-24% inhibition)	0 (0-24% inhibition)	0 (0-24% inhibition)	
